From PubChem BioAssay AID1963576 (National Center for Advancing Translational Sciences (NCATS), 2024)
The campaign covered roughly 46,000 compounds. About 60 (0.1%) were called active. About 3% were inconclusive and are not listed. Calls come from the whole dose curve; as a rule, active = well fitted inhibition curve with a large enough effect; inconclusive = small, poorly fitted or top-dose-only effect; inactive = no such curve, though single readings can be large or run the other way. This is one part of the list.

Test: Primary qHTS assay for Inhibitors of ovarian cancer metastasis using an organotypic tumor microenvironment (TME) model.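 For activity change, negative = inhibition: plate controls were DMSO wells for no effect and tomatine positive control wells for full effect.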 Note: nearly all actives have a fitted effect of over 65% in size.
Details: SKOV3ip1-GFP adhesion/invasion on 3D omental model, fluorescence; series mostly up to 45.8 µM; activity change, negative = inhibition: at the top concentration
Outline: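 Primary human omental fibroblast/mesothelial 3D culture pre-formed 48 h. SKOV3ip1-GFP cells added with compounds (0.36-46 umol/L), incubated 2 h RT/16 h 37 C, fixed; GFP cells quantified at 488/509 nm.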

Activity change, negative = inhibition, inactive:
CCOC(=O)C1CCN(C(=O)Cn2ncc3c4ccccc4n(Cc4ccccc4)c3c2=O)CC1 -13.2%, Cc1ccc2c(c1)N(C(=O)CCC(=O)NCc1cccs1)CC(C)O2 (stereo not given) 0.649%, COC(=O)c1ccccc1NC(=O)Cn1c(CCC(=O)O)ccc1-c1ccc(C)cc1 6.98%, COc1ccc(CCNC(=O)c2ccc(Cn3c(SCC(=O)NCCC(C)C)nc4cc5c(cc4c3=O)OCO5)cc2)cc1OC 5.27%, COc1cccc(-c2nc3c(C#N)c[nH]n3c2NC2CCC(C)CC2)c1 (stereo not given) 8.88%, CC1=C(C(=O)Nc2cccnc2)C(c2ccccc2Cl)n2nc(-c3ccccc3)nc2N1 (stereo not given) 1.88%, Cc1cc(C)c2oc(-c3cccc(NC(=O)COc4ccccc4Cl)c3C)nc2c1 1.95%, Cc1cccc(Nc2nc3c(S(=O)(=O)c4ccc(Br)cc4)nnn3c3ccsc23)c1C -23.2%, Cc1ccc(NC(=O)CCSc2nc(-c3ccc4c(c3)OCO4)cc(C(F)(F)F)n2)c(C)c1 15.4%, CN(C)c1ccc(CNC(=O)C2CCN(S(=O)(=O)c3ccc4[nH]c(=O)ccc4c3)CC2)cc1 -1.31%, COc1cc(-c2ccno2)ccc1S(=O)(=O)N1CCN(c2ccccc2)CC1 0.796%, Cc1ccc2nc(CN3CCN(S(=O)(=O)c4ccc(C)c(C)c4)CC3)oc2c1 -4.61%, Cc1cc(C(=O)N2CCN(c3cc(Cl)ccc3C)CC2)c2c(C)nn(-c3ccccc3)c2n1 -18.4%, Cn1c(=O)n(C)c2cc(N3CCCC3)c(NC(=O)Nc3ccccc3)cc21 -5.01%, Clc1cccc(-n2ncc3c(N4CCCCCC4)ncnc32)c1 -4.79%, Cc1ccc(Cn2c(=O)n(Cc3ccccc3Cl)c(=O)c3cccnc32)cc1 -0.996%, CCNc1sc(S(C)(=O)=O)nc1S(=O)(=O)c1ccc(C)cc1 -28.3%, Cc1ccc(N2CCN(c3nc4ccccc4c4nnc(C)n34)CC2)c(C)c1 -9.8%, COc1cc(OC)c(NC(=O)c2c(C)oc3ncnc(N4CCCCC4)c23)cc1Cl -8.18%, COC(=O)c1ccccc1NC(=O)Cn1c(=O)n(CCCCC(=O)NCc2ccc3c(c2)OCO3)c(=O)c2ccccc21 2.47%, Cc1ccc(CNC(=O)c2cccc(Nc3nc4ccccc4n4nnnc34)c2)cc1 -1.86%, CCc1ccc(NC(=O)CCNC(=O)Cn2cnc3ccccc3c2=O)cc1 -1.39%, CCOC(=O)c1c(C)[nH]c(C)c1S(=O)(=O)N(C)CC(=O)N1CCN(c2cccc(Cl)c2)CC1 -10.5%, Cc1ccc(C(=O)c2cn(Cc3c(F)cccc3Cl)c3nc(C)ccc3c2=O)cc1 -2.12%, Cc1ccc(CNC(=O)CN2C(=O)COc3ccccc32)cc1 -19%, Cc1cc(C)cc(NC(=O)Cn2c(=O)n(CC(=O)NCCc3ccccc3)c(=O)c3ccccc32)c1 0.615%, COc1ccc(C(=O)Nc2nnc(SCc3cc(=O)n4cc(Cl)ccc4n3)s2)cc1 -3.37%, O=C(NCCc1ccc(Cl)cc1)c1ccc(CS(=O)(=O)Cc2ccc(Cl)cc2)o1 -4.59%, CCC(C(=O)NCc1ccc2c(c1)CCN2C(=O)c1ccc(F)cc1)c1ccccc1 (stereo not given) -8.2%, CCc1ccc(C2CC(=O)c3c([nH]c(C(=O)OCc4ccc(C)cc4)c3C)C2)cc1 (stereo not given) -28.1%, Cc1noc(-c2ccc(-c3noc(-c4ccccc4)n3)cc2)n1 4.79%, CC1CCN(S(=O)(=O)c2ccc3[nH]cc(C(=O)NCc4ccc(F)cc4)c(=O)c3c2)CC1 1.19%, CC(=O)c1cc(-c2ccccc2)n(CCC(=O)Nc2nc3c(C)cccc3s2)c1C -5.77%, CCOc1ccc(CCNC(=O)c2cc(Nc3ccc(C)cc3C)nc3ccccc23)cc1OCC -8.87%, Cc1cccc(CSc2nc(=O)c3c(n2C)NC(=O)CC3c2cccc(O)c2)c1 (stereo not given) -10.2%, Cc1ccc2c(c1)sc1nc(-c3cc4cc(Cl)ccc4oc3=O)cn12 2.2%, Cc1ccc(N2CC(NC(=O)Cc3ccc(F)cc3)CC2=O)cc1 (stereo not given) -2.85%, O=C1Cc2cc(S(=O)(=O)N3CCCCC3)cc3c2N1CCC3 21.6%, CC1=C(C(=O)Nc2cccc(C(F)(F)F)c2)C2(CCCCCC2)OC1=O -34.6%, Cc1cnc(NC(=O)Nc2cc(Br)c(C)cc2OC[C@@H]2CNCCO2)cn1 3.77%, CCOc1ccc2nc(NC(=O)c3nc(SCc4ccc(C)cc4)ncc3Cl)sc2c1 -11%, Nc1cc(C(F)(F)F)c(-c2cc(N3CCOCC3)nc(N3CCOCC3)n2)cn1 -11.4%, CCOC(=O)CC(NS(=O)(=O)c1cc(-c2cc(C)no2)ccc1C)c1ccc(C)cc1 (stereo not given) 9.02%, COc1ccc(N2CCN(c3nc4ccccc4n4c(C)nnc34)CC2)cc1 3.48%, CC(C)CCn1c(=O)c2sccc2n2c(CCCC(=O)Nc3ccc(C(C)C)cc3)nnc12 0.642%, Cc1ccc(CSc2nncn3c2cc2sccc23)cc1 -23%

outcome, inactive:
CC1CCN(C(=O)CSc2nnc(NC(=O)Nc3ccccc3)s2)CC1, CS(=O)(=O)c1ncc(Cl)c(C(=O)Nc2c(C(=O)c3ccc(Cl)cc3)oc3ccccc23)n1, Cc1cc(NC(=O)CSc2ncc(C(=O)Nc3ccc(C)c(C)c3)c(=O)n2C)no1, CC(C)C(=O)Nc1nnc(SCc2cc(=O)n3ccccc3n2)s1, O=C(Nc1ccc2oc(-c3ccc4ccccc4c3)nc2c1)c1cc(Cl)ccc1Cl, CC(=O)c1c(C)n(-c2ccc(C)cc2)c2ccc(OC(=O)COc3ccccc3)cc12, CCCCc1nn2c(=O)cc(COC(=O)c3cccs3)nc2s1, Cc1ccc(NC(=O)Cn2ncn3c(cc4ccccc43)c2=O)cc1C, Cc1cccc(C)c1NC(=O)Cn1cc(S(=O)(=O)Cc2ccc(F)cc2)c2ccccc21, Cn1c(=O)c2c(nc(N3CCOCC3)n2Cc2ccccc2)n(C)c1=O, CCOC(=O)c1cc(-c2ccc(C)cc2)n(CCC(=O)Nc2cc(Cl)ccc2C)c1C, COc1ccccc1NC(=O)Cn1c(=O)n(-c2cccc(Cl)c2)c(=O)c2sc3ccccc3c21, COc1cc2[nH]c(=O)n(Cc3ccc(C(=O)NCc4ccc(C)cc4)cc3)c(=O)c2cc1OC, O=C(Cn1c(=O)n(Cc2ccc(C(=O)NCc3ccc4c(c3)OCO4)cc2)c(=O)c2ccccc21)Nc1cccc(Cl)c1
